# Measurements reported in PubChem BioAssay AID624417 (National Center for Advancing Translational Sciences (NCATS), 2012).
# Hit rate of the full screen: of about 410,000 compounds, about 6,400 (1.6%) were called active. The shares of active, inactive and inconclusive entries below differ from those in the screen. Calls come from the whole dose curve; as a rule, active = well fitted inhibition curve with a large enough effect; inconclusive = small, poorly fitted or top-dose-only effect; inactive = no such curve, though single readings can be large or run the other way. Potencies of inconclusive entries are left out as doubtful fits.
# Biological target: Glucagon-like peptide 1 receptor (Homo sapiens) (UniProt P43220)
# Sequence of UniProt P43220 (P43220 whole entry, looked up): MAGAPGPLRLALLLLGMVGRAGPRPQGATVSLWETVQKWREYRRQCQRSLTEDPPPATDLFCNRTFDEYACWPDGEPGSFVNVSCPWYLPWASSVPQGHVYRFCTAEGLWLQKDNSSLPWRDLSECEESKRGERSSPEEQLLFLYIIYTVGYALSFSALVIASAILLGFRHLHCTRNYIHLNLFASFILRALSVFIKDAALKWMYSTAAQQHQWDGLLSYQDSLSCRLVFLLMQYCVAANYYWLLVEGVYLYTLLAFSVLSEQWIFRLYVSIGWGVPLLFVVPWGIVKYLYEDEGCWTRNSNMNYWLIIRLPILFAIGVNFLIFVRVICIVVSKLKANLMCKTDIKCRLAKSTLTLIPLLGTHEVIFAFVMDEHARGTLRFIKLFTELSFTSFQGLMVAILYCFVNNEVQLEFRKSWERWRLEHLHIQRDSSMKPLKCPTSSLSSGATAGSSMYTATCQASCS
# Assay: qHTS of GLP-1 Receptor Inverse Agonists (Inhibition Mode); note: nearly all actives have a fitted effect of over 55% in size
# Details: HEK293 GLP-1R CRE-luciferase, luminescence, 24 h, GLP-1R form is constitutively active; activity change, negative = inhibition: at 38.3 µM (top of the series) unless noted
# Procedure, shortened: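 Stable HEK293 clone (constitutively active GLP-1R + cAMP-response luciferase); 200 cells/uL plated, 12 h pre-culture, compound 24 hr, 37 deg C/5% CO2; detection reagent 12 min RT; luminescence.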
# % is set by controls: 0 for no effect and ±100 for the full control effect; potency is the fitted concentration of half-maximal effect; tags give direction and shape of the fitted curve.
SMILES,Potency,"activity change, negative = inhibition"
COc1cccc(CC2(CO)CCN(Cc3cnc(-c4cccc(C)c4)nc3)CC2)c1,"inconclusive [inhibitor, partial curve, poor fit]",
Clc1cccc(-n2ncc3c(NCCCn4ccnc4)ncnc32)c1,"inconclusive [inhibitor, partial curve, poor fit]",
CN(CCCNC(=O)Cn1c(=O)c2cccn2c2ccccc21)Cc1ccccc1,"inconclusive [inhibitor, partial curve]",
CCOC(=O)c1c(-c2ccc(C)o2)csc1NC(=O)CN1CCOCC1,"inconclusive [inhibitor, partial curve, poor fit]",
Cc1cccc(N2CCN(C(=O)Cn3nc(Cc4cccnc4)c4ccccc4c3=O)CC2)c1C,"inconclusive [inhibitor, single point]",
COc1cc(CN2CCCC(CO)(Cc3ccccc3)C2)ccc1O (stereo unspecified),"inconclusive [inhibitor, single point]",
O=C(NCCC1CCCCN1S(=O)(=O)c1ccccc1)C(=O)NCc1ccccc1F (stereo unspecified),"inconclusive [inhibitor, partial curve, poor fit]",
CCC(C)NCCOCCOc1ccc(Br)cc1 (stereo unspecified),"inconclusive [inhibitor, partial curve, poor fit]",
Cc1nc(NC(=O)c2ccccc2)sc1-c1csc(NCc2ccccc2)n1,"inconclusive [inhibitor, partial curve, poor fit]",
CC(C)(C)C(=O)NC(=S)Nc1cc(C(F)(F)F)ccc1N1CCOCC1,"inconclusive [inhibitor, single point]",
COc1cc(NC(=O)C2CCCN(S(=O)(=O)c3cccc4nsnc34)C2)cc(OC)c1 (stereo unspecified),"inconclusive [inhibitor, partial curve, poor fit]",
O=C(Cn1cc(S(=O)(=O)Cc2ccc([N+](=O)[O-])cc2)c2ccccc21)N1CCOCC1,,inactive: -6.34%
O=C1[C@@H]2[C@@H]3C[C@@H]([C@H]4ON=C(c5ccc(Cl)cc5Cl)[C@@H]34)[C@@H]2C(=O)N1C1CCCCC1,"inconclusive [inhibitor, partial curve, poor fit]",
Cc1cc2nc(-c3ccc(F)cc3)c(CC3CCCCC3)n2c(C)c1Br,"inconclusive [inhibitor, partial curve, poor fit]",
Nc1nnc(CCOc2ccc(Cl)cc2)s1,,inactive: 49.1%
COc1cc(/C=N/Nc2ccc(C(F)(F)F)cn2)ccc1O,"inconclusive [inhibitor, single point]",
CCCC(=O)Nc1ccc2oc(-c3ccncc3)nc2c1,,inactive: 0%
COc1ccc(NC(=O)c2c(NCc3cccc(OC)c3)sc3c2CCCC3)cc1,"inconclusive [inhibitor, single point]",
O=C(CCC1N=C2c3ccccc3N=C(SCc3ccccc3F)N2C1=O)NCc1ccc(F)cc1 (stereo unspecified),,inactive: 9.5%
CC(C)(C)c1ccc(C(=O)N2CCC(c3nc4ccccc4o3)CC2)cc1,"inconclusive [inhibitor, partial curve, poor fit]",
Cc1ccc2occ(CC(=O)N(Cc3ccc(C(C)C)cc3)C3CCS(=O)(=O)C3)c2c1 (stereo unspecified),"inconclusive [inhibitor, single point]",

SMILES,Potency,"activity change, negative = inhibition"
CCOCC(=O)Nc1cccc(SC)c1,,inactive: 5.28%
O=C(Nc1cccc(Cl)c1)ON=C1c2ccccc2-c2ccccc21,"inconclusive [inhibitor, single point]",
COc1ccccc1NC1=NC(c2ccc(Cl)cc2)N=C(N)N1 (stereo unspecified),"inconclusive [inhibitor, single point]",
Cc1cccc(C)c1OCCn1nnc2ccccc21,"inconclusive [inhibitor, partial curve, poor fit]",
Cc1cc(Nc2ccc(N3CCOCC3)cc2)c2cccc(C)c2n1,"inconclusive [inhibitor, single point]",
COc1ccc(CCn2c(C)cc(C(=O)CSc3nnc(N)s3)c2C)cc1,"inconclusive [inhibitor, single point]",
Cc1ccc2c(c1)C(O)(c1c(C)[nH]c3ccccc13)C(=O)N2 (stereo unspecified),active: 3.16 µM,
NS(=O)(=O)c1ccc(N2CCN(CCOc3ccc(Cl)cc3)CC2)nc1,"inconclusive [inhibitor, single point]",
COc1ccc(Cl)cc1NC(=O)CSc1cn(CC(=O)N2CCCCCC2)c2ccccc12,"inconclusive [inhibitor, single point]",
CC(=O)Nc1nc2n(n1)C(c1ccccc1)C=C(c1ccccc1)N2 (stereo unspecified),,inactive: 212%
C=CCc1c(C)nc2c(-c3ccccc3)cnn2c1N1CCOCC1,,inactive: 27.7%
Cc1ccc(NC(=O)Cn2c(=O)n(CCC(=O)NCc3ccccc3Cl)c(=O)c3ccccc32)cc1,,inactive: -11.6%
Cc1ccc(-c2nnc3ccccc3c2C(=O)Nc2ccccc2F)cc1,,inactive: 21.5%
CC(CC(=O)Nc1cc([N+](=O)[O-])ccc1Cl)c1ccccc1 (stereo unspecified),"inconclusive [inhibitor, single point]",
CN(c1ccc(OCc2nnc(-c3ccccc3)o2)cc1)S(=O)(=O)c1ccccc1,"inconclusive [inhibitor, single point]",
CC(=O)N(O)c1ccc(C=Cc2ccccc2)cc1,"inconclusive [inhibitor, partial curve, poor fit]",
Cc1sc(-n2c(C)cc(/C=C3\SC(=S)NC3=O)c2C)c(C#N)c1C,"inconclusive [inhibitor, partial curve, poor fit]",
COc1ccc(-c2cc3nc(CCl)[nH]c(=O)c3s2)cc1,"inconclusive [inhibitor, partial curve, poor fit]",
CCc1nc2c(OCCC3CCCCC3)cccn2c1N(C)C(=O)c1ccc(OC)cc1,"inconclusive [inhibitor, partial curve, poor fit]",
CCOc1ccc(NC(=O)CN(C)C(=O)c2cn(-c3ccccc3)nc2-c2cccs2)cc1OCC,"inconclusive [inhibitor, single point]",
